Among all 360,000 compounds or so, about 7,500 (2.1%) were called active. This list was built around the results that the source calls inconclusive (neither active nor inactive); the mix of calls is not that of the screen. Calls follow the shape of the dose curve; as a rule, active = well fitted cell-killing curve with a large enough effect; inconclusive = small, poorly fitted or top-dose-only effect, or effect the other way, or another doubt; inactive = no such curve, though single readings can be large or run the other way. Potencies of inconclusive entries are left out as doubtful fits.
test: qHTS for induction of synthetic lethality in tumor cells producing 2HG: qHTS for the HT-1080-IDH1KD cell line; conditions: HT-1080 IDH1 knockdown viability, ATP luminescence, 48 h; activity, negative = toxicity: at 46.1 µM (top of the series) unless noted;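 as to activity, negative = toxicity: 0% = DMSO wells and -100% = cell-free medium wells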
In short: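 Knockdown cells (IDH1KD HT-1080) received compounds 2 h after plating at 750 cells/well and were kept 48 h at 37 °C in 5% FBS RPMI. A CellTiter-Glo luminescence read gave % activity for curve fitting.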
Potency is read from the fitted curve at half-maximal effect; tags tell the direction and shape of the fitted curve.

Row | SMILES | Potency | activity, negative = toxicity
1 | CN(C)c1ccc(C=c2c3ccccc3n3c2cc(-c2ccc(Cl)cc2)[n+]3C)cc1 | inconclusive [cytotoxic, single point] | 
2 | CC(=O)OCCCN(C)CC/C=C1/c2ccccc2CSc2ccccc21 | inconclusive [cytotoxic, partial curve] | 
3 | C=CCOc1ccc(NC(=O)C(=O)NCCCn2ccnc2)cc1 |  | inactive: -3.03%
4 | COC(=O)c1cc2nc(-c3ccccc3)cc(C(F)(F)F)n2n1 | inconclusive [rising, partial curve] | 
5 | O=C(N/N=C1\CC(c2ccccc2)Oc2ccccc21)c1cccnc1 (stereo unspecified) | active: 11.6 µM | 
6 | O=[N+]([O-])c1ccccc1C=NNc1ccccc1 | inconclusive [cytotoxic, partial curve] | 
7 | Cc1cc2nc(N3C(=O)CNC3=S)sc2cc1C |  | inactive: -16.4%
8 | COC(=O)C(Cc1ccccc1)NC(=O)CNC(=O)c1sc2ccccc2c1Cl (stereo unspecified) |  | inactive: 1.34%
9 | CCOC(=O)c1ccc(Nc2cc(C)nc(-c3ccccc3)n2)cc1 | active: 18.4 µM | 
10 | C/C(=N\NC(=S)NCc1ccccc1)c1ccc2ccccc2c1OC(F)F | inconclusive [cytotoxic, single point] | 
11 | N#Cc1ccc(Oc2nc(Nc3ccc(F)cc3)nc(N3CCCC3)n2)cc1 | inconclusive [cytotoxic, single point] | 
12 | O=[N+]([O-])c1ccc(NNC(=S)Nc2ccc(F)cc2)cc1 | inconclusive [cytotoxic, single point] | 
13 | O=C(CCl)NCCNC(=O)c1cc(OCC(F)(F)F)ccc1OCC(F)(F)F | inconclusive [cytotoxic, single point] | 
14 | CCOc1ccccc1CNC(=O)Cn1nc(C)c2c(C)n(-c3ccc(C)cc3)nc2c1=O |  | inactive: -1.84%
15 | COc1cc(OC)cc(C(=O)N/N=C/c2ccc(OC)c(COc3ccc(F)cc3)c2)c1 | active: 5.17 µM | 
16 | CN1CCC(=O)N([C@H](CSc2ccccc2)Cc2ccccc2)CC1 |  | inactive: -6.67%
17 | COc1ccc(C(=O)n2cnc3ccccc32)cc1[N+](=O)[O-] |  | inactive: -0.552%
18 | FC(F)(F)c1cnc(N2CCCN(C(=S)Nc3ccccc3)CC2)c(Cl)c1 | active: 23.1 µM | 
19 | O=C(Nc1ccc(F)c(F)c1)c1cnc(-c2ccccc2)nc1-c1ccccc1 | inconclusive [cytotoxic, single point] | 
20 | Cc1ccc(C)c(NC(=S)NCCc2c[nH]c3ccccc23)c1 |  | inactive: -21.4%
21 | N#Cc1ccc(/C=C/C(=O)c2cccnc2)cc1 | inconclusive [cytotoxic, single point] | 
22 | O=C(NCCCN1CCCCCC1)c1ccc2c(Cl)c3c(nc2c1)CCCC3 |  | inconclusive: -35.8% [cytotoxic]
23 | CCOc1ccccc1C(=O)N1CCC(n2nnc3cc(C)ccc32)CC1 |  | inactive: -0.632%

Row | SMILES | Potency | activity, negative = toxicity
24 | CC(=O)c1ccc(NS(=O)(=O)c2cc3c(cc2C)N(C)CCO3)cc1 | active: 16.4 µM | 
25 | O=C(Nc1ccc(F)c(Cl)c1)c1cc(C2CCCN(S(=O)(=O)c3ccccc3)C2)on1 (stereo unspecified) | inconclusive [cytotoxic, single point] | 
26 | CN(C)CCn1c2c(c(SCC(=O)N3CCc4ccccc43)nc1=O)CCCC2 |  | inactive: 0.325%
27 | C/C(=N\NC(=O)c1cc(-c2cccs2)nc2ccccc12)c1ccccn1 | inconclusive [cytotoxic, full curve] | 
28 | CCOc1ccc(CN2CCN(Cc3cc4c(cc3Cl)OCO4)CC2CCO)cc1 (stereo unspecified) |  | inactive: -25.1%
29 | COc1ccc(OC)c(-n2c(CNC3CCN(Cc4ccccc4)CC3)nc3ccccc3c2=O)c1 | inconclusive [cytotoxic, single point] | 
30 | Cc1ccc2oc(=O)c(/C=C(\O)CC(C)C)nc2c1 |  | inactive: -1.03%
31 | Cc1cccc(-n2ncc3c(Nc4c(C)n(C)n(-c5ccccc5)c4=O)ncnc32)c1 |  | inactive: -10.3%
32 | CS(=O)(=O)c1ncc(Cl)c(C(=O)Nc2ccc3ccccc3c2)n1 | active: 2.91 µM | 
33 | O=c1oc2ccccc2c(Nc2cccc3ccccc23)c1[N+](=O)[O-] | inconclusive [cytotoxic, partial curve] | 
34 | CCOc1ccc(NC(=O)c2cc3c(C)nc4ccccc4c3o2)cc1 | inconclusive [cytotoxic, single point] | 
35 | CC(C)C(c1nnnn1C1CCCC1)N1c2ccccc2CC1C (stereo unspecified) |  | inactive: -27.1%
36 | O=C1C=C(c2ccccc2Oc2ccccc2)C[C@@H](c2ccc(F)cc2)C1 | inconclusive [cytotoxic, single point] | 
37 | Cc1cc(C)c(S(=O)(=O)Cc2ccccc2)c(OC(C)C)n1 |  | inactive: -3.06%
38 | COc1ccc(/C=N/NC(=O)c2cccc([N+](=O)[O-])c2)cc1OS(=O)(=O)c1ccc(C)cc1 | inconclusive [cytotoxic, single point] | 
39 | CNC(=S)N/N=C/c1ccc(OCc2ccccc2)c(Br)c1 | inconclusive [cytotoxic, single point] | 
40 | COc1ccc(N2Cc3ccccc3C2=O)cc1 | inconclusive [cytotoxic, partial curve] | 
41 | COC(=O)CSc1ncnc2c1sc1nc3c(cc12)COC(C)(C)C3 | inconclusive [rising, partial curve, poor fit] | 
42 | CC(C)(C)OC(=O)NCc1ccc(NC(=O)c2nc[nH]c2C(=O)N[C@@H](Cc2ccccc2)C(=O)OCc2ccccc2)cc1 | inconclusive [cytotoxic, single point] | 
43 | N#Cc1ccc(-c2nc3cc(Cl)ccc3c(=O)n2O)cc1 | inconclusive [cytotoxic, partial curve] | 
44 | COc1ccc(-c2cc(=O)c3c(O)cc(O[C@@H]4O[C@H](CO[C@@H]5O[C@@H](C)[C@H](O)[C@@H](O)[C@H]5O)[C@@H](O)[C@H](O)[C@H]4O)cc3o2)cc1O | inconclusive [cytotoxic, single point] | 
45 | COc1ccc2c(c1)-c1c(ssc1=S)C(C)(C)N2 | inconclusive [cytotoxic, single point] | 
46 | O=C(CC[C@H]1O[C@@H](n2cnc3c(NC(=O)c4ccccc4)ncnc32)[C@H](O)[C@@H]1O)NCC1CCCCC1 |  | inactive: 22.1%

From PubChem BioAssay AID686971 (National Center for Advancing Translational Sciences (NCATS), 2013)
